From PMC12136788
The list shows a part of the results.

T1: UNK ZnF1-3 (human, UniProt Q9C0B0 31-174)
T1 sequence: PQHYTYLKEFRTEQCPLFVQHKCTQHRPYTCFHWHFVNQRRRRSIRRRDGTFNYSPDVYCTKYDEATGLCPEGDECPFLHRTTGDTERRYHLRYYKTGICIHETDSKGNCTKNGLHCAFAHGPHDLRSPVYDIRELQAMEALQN

B1: chr1:163112212:163112213:-_ENSG00000143248_ENST00000313961|hu_hu|hu_hu_hu_mus_False|28_28 (ssRNA)
RNA: GGGAGUUCUACAGUCCGACGAUCUUUUAUUAUCAGUAAGAGUGAGUUACAUACUAGGCAAAGUAUUGGAUACAAUAAUCAGGAAACAAACACUAUUGGUCCAGAAUUUAAAAUAUAAUGAGCGAAGUGCUGGCACAGGACUUACAACAGAGGAUUGAGCAUCA
B2: 16774833_16775393_925_3pUTR_ENSG00000169895_ENST00000380155|human|control|control (ssRNA)
RNA: GGGAGUUCUACAGUCCGACGAUCCUAGUUGCUCCAUUUCUUUCCUUAGAUCUUCCUGAUUUAGGUUACAGGCAUCGAAGGCAUCACUGACAAACUCAGAAACACCUGGGCUAGUAGAAAUUUCUUCCUCAUCCUCUUGAGUUUCAACAGAGGAUUGAGCAUCA
B3: chr1:163117127:163117128:-_ENSG00000143248_ENST00000313961|hu_mus|hu_hu_hu_mus_False|78_78 (ssRNA)
RNA: GGGAGUUCUACAGUCCGACGAUCUGCUACAAAGGAUGUAACUCAACUCACAGGGCAUGAUUUCAUAGCCUGACCAGAUGACUACUUGAUUAGCUCCUUAUAAAAUUCAGAGCGCACAAAGCGGGGCAGAGAAUCCUUCUCCAUCAACAGAGGAUUGAGCAUCA
B4: chr15:38448799:38448800:-_ENSMUSG00000037458_ENSMUST00000152833|mus_hu|FALSE|FALSE (ssRNA)
RNA: GGGAGUUCUACAGUCCGACGAUCGCAGAAAUACCCAAGGCGGCCUGGGCCAUAGGCUGCGGGAACGACUUGGGGGUAAAAGCGCGGCACCGACACCAGCUGUGUGCAGCAGUGGCGGCGGCGGCCGAAGGAGAAAUAGAACAGCAACAGAGGAUUGAGCAUCA
B5: chr18:35732242:35732243:+_ENSMUSG00000037236_ENSMUST00000166793|perfect_dup|FALSE|FALSE (ssRNA)
RNA: GGGAGUUCUACAGUCCGACGAUCACGACUUCCAUGGUCAUAAUCAAGCACUGGGUUGAGACUAGGACCACGAUCAUCAAAACUAUCUCUUCUAAAGUGCCUUUUUUCUUCCCAAUCAUCCCUAGGUACUCUGUAUGGUGGCUCCAACAGAGGAUUGAGCAUCA
B6: chr1:156905105:156905106:-_ENSG00000132694_ENST00000368194|hu_hu|FALSE|FALSE (ssRNA)
RNA: GGGAGUUCUACAGUCCGACGAUCGAGGGAGGGAGUAGCUUGGCAGCAAGCUGUGGAGGGCAGGCUCUGGAGCCAGGUGGGAUGGGGAGCCAGAAGACCUUCCCACUCACAGGGACAGGAACACUCAGGCCUGGCUCCCGCUUUCAACAGAGGAUUGAGCAUCA
B7: chr11:50199487:50199488:+_ENSMUSG00000007850_ENSMUST00000069304|mus_hu|FALSE|FALSE (ssRNA)
RNA: GGGAGUUCUACAGUCCGACGAUCAAAUACUGGGCCUUAAGUCUUCAUAACAAUCCUGAUUUCCACUUAGAGUAAGCAUAAAUCACAAGCUUGUAUUGCAGAAACUGUUAAACUGAAGUUUUCUUAAAGAAAAAAAAAAAAAAACAACAGAGGAUUGAGCAUCA
B8: chr2:128036804:128036805:-_ENSG00000163161_ENST00000285398|hu_hu|FALSE|FALSE (ssRNA)
RNA: GGGAGUUCUACAGUCCGACGAUCGACAAUAAUCUUGUCAUUCCUCCUUUCAUGAAACUUGAUCAGAAACUGGCAAGCUCUAAAUUUGUUGGGGUUCAUGGUGUACAGCAAGAUUCGUUUCUUGGUUUUGAUUGCCACAUAUUCCAACAGAGGAUUGAGCAUCA
B9: chr16:45382771:45382772:-_ENSMUSG00000022661_ENSMUST00000163230|mus_mus|mus_mus_mus_hu_True|68_88 (ssRNA)
RNA: GGGAGUUCUACAGUCCGACGAUCCUGGGUCAUGUUAUAAGACAAAUGGAUAGGGAGGGCAUGCUUCUGUAAAGAUGUGAGCUAUUGUCUAAGACUAACAAUAUUUAUCUAGCUAUAAAAAUAAGUUAAAUGAAUAAGUUAAGACAACAGAGGAUUGAGCAUCA
B10: chrX:12253581:12253582:-_ENSMUSG00000064127_ENSMUST00000096495|mus_mus|FALSE|FALSE (ssRNA)
RNA: GGGAGUUCUACAGUCCGACGAUCUUAAAAAGUCCCUGACUGGCUUCAAGAGACAGUACAGUACUCUUAAAAAGAAAUCCUAUUGAGAUGUACCAGUGCCAGAAACUCCACUGAACACUGGACAGGCACUGCACUGUGGACUUUCAACAGAGGAUUGAGCAUCA
B11: chr10:33190432:33190433:-_ENSG00000150093_ENST00000302278|hu_mus|hu_hu_hu_mus_True|78_108 (ssRNA)
RNA: GGGAGUUCUACAGUCCGACGAUCUACAUUUUCAAAACCUGCAUGUGAAUAAAACCCUGGCAAUAUUGCCCCAAAACUACCCUACUGUGACUAAGAUGCUGCUGCUGUGAGCUUGGUGUUGCAAAAUCCGCCUGAGUAGGAUUCCAACAGAGGAUUGAGCAUCA
B12: 104432508_104432628_880_CDS_ENSG00000164934_ENST00000297579|human|control|control (ssRNA)
RNA: GGGAGUUCUACAGUCCGACGAUCGACUCCAUCACGGUGACCAUCCAGCGAAGCAAGGAAUGGUUUUGCAAAUACUCGUUCCAGUUUGGUAGCAUUUAAAGCUCUUAUAUAUUCUCGUGGGACCUCAAAAGGAUGUAAAGCAGGCAACAGAGGAUUGAGCAUCA
B13: chr8:26875701:26875702:-_ENSMUSG00000037316_ENSMUST00000038498|mus_mus|FALSE|FALSE (ssRNA)
RNA: GGGAGUUCUACAGUCCGACGAUCAGACUACUGAGACAGACAACCAAAUGCAAAACUGGAUCUGGAACAGUUGAGAGGAUGCUACUAAAAAGAUAAAUGAAGUGUCUACUUUUAGCUUGCUACUUCAGCUAAUAUUAAUAGCACCAACAGAGGAUUGAGCAUCA
B14: chr4:115894766:115894767:+_ENSMUSG00000028698_ENSMUST00000030464|mus_hu|mus_mus_mus_hu_True|8_68 (ssRNA)
RNA: GGGAGUUCUACAGUCCGACGAUCUUCCACACGGAAAUGUACUUCGGGUUUUCCAACGGCCAGUACCGUCCAGCCAAAACUACCCGAACAGGGUCCUCCCCCUCUCUCCUACAGAACACAACAAAAUAACAAAAUACUUUCAAGCAACAGAGGAUUGAGCAUCA
B15: chr9:13223689:13223690:-_ENSG00000107186_ENST00000319217|hu_hu|motif|central (ssRNA)
RNA: GGGAGUUCUACAGUCCGACGAUCCUCUUGAACAAAUAUUCCCAGCUCUCCUCUGUUUUCACUUCUUAGUCCCACAACACGGAACCCAAGGCCUCCAGAUGGAGGUUUGAGGAGCUCAAAAACUUCUACAUGGCGACCCUGGGCCAACAGAGGAUUGAGCAUCA
B16: chr13:55803806:55803807:+_ENSMUSG00000045767_ENSMUST00000057844|mus_hu|FALSE|FALSE (ssRNA)
RNA: GGGAGUUCUACAGUCCGACGAUCUUAGCUCAUUUGCUAAUAUAAUAAAUAAGGCAUGUUAAAGUACUUUUUAAAGAAAAAAGUAAUGCAGACUUACUUGAAUUGCAGAUCAUUUUCUGACCAACAGUUUAAAUAUAGAAUAAUCAACAGAGGAUUGAGCAUCA
B17: 69581730_69584097_1114_CDS_ENSMUSG00000042133_ENSMUST00000090858|mouse|control|control (ssRNA)
RNA: GGGAGUUCUACAGUCCGACGAUCGUUAGGUGGAUUACACUCUCUUUCUCUUUCUCUCUCUCUGUUUUUCCUCUCCUUGUCAUCGGCUUUAGGAGGACUUUUUCUCAUUAGAAAUCUAUUUUCUGGUAUAGGAGGGAUCUCUUCCAACAGAGGAUUGAGCAUCA
B18: chr6:114281168:114281169:-_ENSG00000196591_ENST00000368632|hu_hu|hu_hu_hu_mus_True|88_88 (ssRNA)
RNA: GGGAGUUCUACAGUCCGACGAUCUUCCAUUUUUCGGUAUAAACCAUAAUUUAACAGCAAGUUAUGAGUCAUCCGGAUUCUAUGAGGCUUCAUGGGAUGACCCUGGCCAUAAUAAUAAUUGCCAAUAUCACCAUCAUAGUAGUACAACAGAGGAUUGAGCAUCA
B19: 17616259_17616379_66_CDS_ENSG00000118579_ENST00000237380|human|control|control (ssRNA)
RNA: GGGAGUUCUACAGUCCGACGAUCUGGAGCUGCCUGAAGAAGCGAAGCUUGGCCCGGAAGGCCCGGCGGGGCCUGAGGGGGACCGGGUGGCUGCCCAGAAAACAUACCCCCUAGUGGAGCCGCCAUGUUUGGAAUGGCGCAAGACAACAGAGGAUUGAGCAUCA
B20: 27436191_27436495_1500_CDS_ENSG00000033867_ENST00000419036|human|control|control (ssRNA)
RNA: GGGAGUUCUACAGUCCGACGAUCUCCCAUGACAGAGCAAACUCCCAACAUAACGCCAACCAUGAGCAAAUCAAGGUGAUAGCCAGCUCCUUUCUUCAAUUUGUGUUCCUUUCUGUUUAUAAUUACAGCUGUGAUUUGUUGAUCCAACAGAGGAUUGAGCAUCA
B21: chr17:60770872:60770873:+_ENSG00000011028_ENST00000303375|hu_hu|hu_hu_hu_mus_True|98_98 (ssRNA)
RNA: GGGAGUUCUACAGUCCGACGAUCUCUUUAAAAAAAAUUCCUUUUUUACAAACAAUAAUAGCACAUUUCGAGAAUCAAGAACUACAAUAGAGGGUCCGCUUUGAGUUUUUGUUCACAUCGUCCUGCACUGGGACACGGGGACUGCAACAGAGGAUUGAGCAUCA
B22: chr16:45382771:45382772:-_ENSMUSG00000022661_ENSMUST00000163230|mus_mus|mus_mus_mus_hu_True|8_88 (ssRNA)
RNA: GGGAGUUCUACAGUCCGACGAUCCUGGGUCAUGUUAUAAGACAAAUGGAUAGGGAGGGCAUGCUUCUCAAAAAAUGUGAGCUAUUGUCUAAGACUAACAAUAUUUAUCUAGCUAUAAAAAUAAGUUUUAAAUGGACGUUAAGACAACAGAGGAUUGAGCAUCA

Molecular target: T1, UNK ZnF1-3
Assay: nsRBNS (natural sequence RNA bind-n-seq); RBNS binding buffer (assumed for nsRBNS): 25 mM Tris pH 7.5, 150 mM KCl, 3 mM MgCl2, 0.01% Triton X-100, 500 ug/ml BSA, 20 U/ml SUPERase-In, 4 C; UNK is unkempt and MSI1 is Musashi-1; names of the RNAs are library labels; protein concentration not given here; high values mean tight binding

Binder | binding signal
B1 | 2.04 enrichment R
B2 | 0.904 enrichment R
B3 | 0.969 enrichment R
B4 | 0.728 enrichment R
B5 | 1.07 enrichment R
B6 | 1.21 enrichment R
B7 | 1.2 enrichment R
B8 | 0.568 enrichment R
B9 | 2.03 enrichment R
B10 | 0.579 enrichment R
B11 | 1.39 enrichment R
B12 | 1.41 enrichment R
B13 | 1.84 enrichment R
B14 | 1.08 enrichment R
B15 | 0.884 enrichment R
B16 | 0.647 enrichment R
B17 | 0.481 enrichment R
B18 | 0.76 enrichment R
B19 | 1.13 enrichment R
B20 | 1.21 enrichment R
B21 | 1.17 enrichment R
B22 | 3.27 enrichment R
